In PMC4336329 (PLoS ONE, 2015):
In all, about 310,000 compounds went through this assay and about 2,200 (0.71%) showed an effect of 50% or more. Effects have a minus sign here. The list shows a part of the results.

These compounds were tested against human ether-à-go-go-related gene (hERG) potassium channel (human, UniProt Q12809) (assay: primary screen, population patch clamp on CHO cells stably expressing hERG).
Sequence of human ether-à-go-go-related gene (hERG) potassium channel (Q12809 whole entry, looked up): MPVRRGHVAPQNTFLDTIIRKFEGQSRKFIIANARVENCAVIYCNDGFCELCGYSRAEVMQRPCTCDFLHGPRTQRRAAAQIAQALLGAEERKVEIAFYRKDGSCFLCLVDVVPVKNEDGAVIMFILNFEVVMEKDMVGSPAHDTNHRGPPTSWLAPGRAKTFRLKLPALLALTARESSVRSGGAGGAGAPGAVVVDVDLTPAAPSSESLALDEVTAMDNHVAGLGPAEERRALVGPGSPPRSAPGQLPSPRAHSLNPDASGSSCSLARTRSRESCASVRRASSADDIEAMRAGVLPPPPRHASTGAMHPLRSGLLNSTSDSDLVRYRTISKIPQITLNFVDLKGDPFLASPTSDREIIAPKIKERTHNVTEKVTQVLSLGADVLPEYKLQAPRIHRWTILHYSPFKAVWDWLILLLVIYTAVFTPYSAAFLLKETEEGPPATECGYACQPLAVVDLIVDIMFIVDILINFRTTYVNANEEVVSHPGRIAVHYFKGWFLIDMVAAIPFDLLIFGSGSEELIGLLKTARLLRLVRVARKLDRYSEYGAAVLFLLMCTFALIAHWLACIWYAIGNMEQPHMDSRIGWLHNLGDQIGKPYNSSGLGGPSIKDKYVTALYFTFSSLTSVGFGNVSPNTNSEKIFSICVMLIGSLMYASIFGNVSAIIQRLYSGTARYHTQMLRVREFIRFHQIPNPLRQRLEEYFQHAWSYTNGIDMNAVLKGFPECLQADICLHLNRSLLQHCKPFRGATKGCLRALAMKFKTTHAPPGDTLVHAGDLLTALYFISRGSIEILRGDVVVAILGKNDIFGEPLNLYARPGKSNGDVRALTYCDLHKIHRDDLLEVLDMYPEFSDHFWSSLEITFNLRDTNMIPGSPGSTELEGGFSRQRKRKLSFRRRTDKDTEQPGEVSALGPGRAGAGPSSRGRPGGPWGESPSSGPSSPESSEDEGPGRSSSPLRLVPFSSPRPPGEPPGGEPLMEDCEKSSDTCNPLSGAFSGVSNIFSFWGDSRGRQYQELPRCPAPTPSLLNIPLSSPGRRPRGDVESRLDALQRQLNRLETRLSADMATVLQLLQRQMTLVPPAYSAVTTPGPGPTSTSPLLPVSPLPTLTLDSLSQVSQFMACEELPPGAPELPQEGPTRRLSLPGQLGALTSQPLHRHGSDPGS
For `N#Cc1c(NC(=O)C2CCCO2)sc2c1CCCCC2` (stereo not drawn), the “hERG current change (%, negative = inhibition) at 1uM” value was 15.8%. For `Cn1nccc1C(=O)N1CCN(c2ccccc2F)CC1`, the “hERG current change (%, negative = inhibition) at 1uM” value was 15.2%. For `Cc1csc(N/N=C/c2ccc([N+](=O)[O-])cc2)n1`, the “hERG current change (%, negative = inhibition) at 1uM” value was 5.4%. With `CC1CN(c2ccc([N+](=O)[O-])cc2C#N)CC(C)O1` (stereo not drawn) the “hERG current change (%, negative = inhibition) at 1uM” value was -12.3%. In the case of `COc1cccc(Nc2nc(C)cc(C)c2C(N)=O)c1`, the “hERG current change (%, negative = inhibition) at 1uM” value is reported as 14.2%. For `O=C(NC1CCCCC1)c1ccc(OC2CCN(Cc3ccccn3)CC2)cc1`, the “hERG current change (%, negative = inhibition) at 1uM” value was -1.78%. With `COC(=O)c1cc2ccsc2n1Cc1nc(-c2ccc(OC)cc2)oc1C` the “hERG current change (%, negative = inhibition) at 1uM” value was 16.9%. With `O=C(CN1C(=O)c2ccccc2C1=O)NCc1ccccn1` the “hERG current change (%, negative = inhibition) at 1uM” value was 11%. With `CCOC(=O)CNC(=O)CSc1nc(N(C)C)nc(N2CCOCC2)n1` the “hERG current change (%, negative = inhibition) at 1uM” value was 13.8%. With `CN1C(C(=O)NCc2ccc(OC(F)(F)F)cc2)CC2Cn3c(nc4cc(Cl)c(Cl)cc43)C21` (stereo not drawn) the “hERG current change (%, negative = inhibition) at 1uM” value was -22.4%. In the case of `CC(C)C[C@H](NC(=O)C1CC(=O)N(c2ccc3c(c2)OCCO3)C1)C(=O)N1CCCCC1` (stereo partly drawn), the “hERG current change (%, negative = inhibition) at 1uM” value is reported as 7.16%. `COc1ccccc1NC(=O)CC(=O)c1ccccc1` was tested, and the “hERG current change (%, negative = inhibition) at 1uM” value was 17.2%. With `CC(C)Oc1ccc(N2CC(C(=O)NC3=NCCS3)CC2=O)cc1` (stereo not drawn) the “hERG current change (%, negative = inhibition) at 1uM” value was 7.27%. `C=CCn1c(=O)c2c(C)c(C)sc2n2c(Nc3ccc(OC)cc3)nnc12` was tested, and the “hERG current change (%, negative = inhibition) at 1uM” value was 12.3%. With `COc1ccc(N(CC(=O)NCCSCc2c(F)cccc2Cl)S(C)(=O)=O)cc1OC` the “hERG current change (%, negative = inhibition) at 1uM” value was 6.97%. In the case of `CCCCc1ccc(NC(=S)NN2CCOCC2)cc1`, the “hERG current change (%, negative = inhibition) at 1uM” value is reported as 12.1%. `CCc1sc(NC(=O)c2cc3ccccc3oc2=O)nc1-c1cccs1` was tested, and the “hERG current change (%, negative = inhibition) at 1uM” value was 15.9%. For `Cc1ccccc1CSc1nc2ccccc2c(=O)[nH]1`, the “hERG current change (%, negative = inhibition) at 1uM” value was 7.87%. For `COc1cc(NC(=O)CSc2ncnc3scc(-c4ccccc4)c23)c(C(=O)O)cc1OC`, the “hERG current change (%, negative = inhibition) at 1uM” value was 11.2%. In the case of `Nc1cc(N)nc(SCCc2ccccc2)n1`, the “hERG current change (%, negative = inhibition) at 1uM” value is reported as 13%. In the case of `O=c1[nH]c(CN2CCN(c3ccccc3)CC2)nc2scc(-c3ccccc3)c12`, the “hERG current change (%, negative = inhibition) at 1uM” value is reported as 9.06%. `Nc1cccc(Cl)c1N1CCOCC1` was tested, and the “hERG current change (%, negative = inhibition) at 1uM” value was 9%. In the case of `Cc1ccsc1CN(C(=O)c1ccc([N+](=O)[O-])cc1)C1CCS(=O)(=O)C1` (stereo not drawn), the “hERG current change (%, negative = inhibition) at 1uM” value is reported as -21%. In the case of `CN(C)/C=N/C(=S)Nc1ccccc1Cl`, the “hERG current change (%, negative = inhibition) at 1uM” value is reported as 16.3%. For `COc1ccc(CNCC(O)(c2ccccc2)c2ccccc2)cc1`, the “hERG current change (%, negative = inhibition) at 1uM” value was -21.9%. In the case of `C=CCOc1ccc(/C(O)=C2\C(=O)C(=O)N(CCCOC)C2c2ccncc2)cc1` (stereo not drawn), the “hERG current change (%, negative = inhibition) at 1uM” value is reported as 7.57%. In the case of `COC(=O)/C(=C\C(=O)c1ccccc1)Nc1ccc(OC)cc1`, the “hERG current change (%, negative = inhibition) at 1uM” value is reported as 15.2%. `Cn1ncc2cc(NC(N)=S)ccc21` was tested, and the “hERG current change (%, negative = inhibition) at 1uM” value was 10.3%. For `CCCCN(CCCNC(=O)Cn1ncc2ccsc2c1=O)Cc1ccccc1`, the “hERG current change (%, negative = inhibition) at 1uM” value was -3.54%. `CCCOc1ccc(N2CC(C(=O)Nc3ccccc3OC)CC2=O)cc1` (stereo not drawn) was tested, and the “hERG current change (%, negative = inhibition) at 1uM” value was -2.8%. With `CS(=O)(=O)c1nc(S(=O)(=O)c2ccc(Cl)cc2)c(N2CCN(CCO)CC2)s1` the “hERG current change (%, negative = inhibition) at 1uM” value was 5.87%. For `COc1cc(OC)c(C(=O)OCC(=O)N2CC(=O)Nc3ccccc32)cc1OC`, the “hERG current change (%, negative = inhibition) at 1uM” value was 21.7%. For `CC(=C1C(=O)c2ccccc2C1=O)N1CCN(Cc2ccccc2)CC1`, the “hERG current change (%, negative = inhibition) at 1uM” value was -7.59%. `COc1cc(/C=C/C(=O)OC(C)C(=O)Nc2c(C)n(C)n(-c3ccccc3)c2=O)ccc1O` (stereo not drawn) was tested, and the “hERG current change (%, negative = inhibition) at 1uM” value was 7.6%. `CCc1sc(C(=O)N2CCCN(C)CC2)cc1Br` was tested, and the “hERG current change (%, negative = inhibition) at 1uM” value was 0.098%. `O=C(O)COc1ccc(/C=N/NC(=O)C(O)(c2ccccc2)c2ccccc2)cc1` was tested, and the “hERG current change (%, negative = inhibition) at 1uM” value was 21.4%. In the case of `CCOc1ccc2[nH]c3nc(SCC(=O)NC4CC4)nnc3c2c1`, the “hERG current change (%, negative = inhibition) at 1uM” value is reported as 13.8%. In the case of `COc1ccc(N2CCN(c3nc4ccccn4c(=O)c3C=O)CC2)cc1`, the “hERG current change (%, negative = inhibition) at 1uM” value is reported as 2.34%. `CC(C)C(=O)NNC(=O)c1c(O)c2ccccc2[nH]c1=O` was tested, and the “hERG current change (%, negative = inhibition) at 1uM” value was 9.75%. For `COc1ccc(S(=O)(=O)N2CCC(C(=O)Nc3ccc4c(c3)OCCO4)CC2)cc1OC`, the “hERG current change (%, negative = inhibition) at 1uM” value was 1.78%. With `Nc1ccc(CSc2ccc(Cl)cc2)cc1` the “hERG current change (%, negative = inhibition) at 1uM” value was -2.05%. For `CCC(C(=O)NCC1CCCO1)N(C(=O)CNS(=O)(=O)c1ccccc1)c1ccc(F)cc1` (stereo not drawn), the “hERG current change (%, negative = inhibition) at 1uM” value was 9.7%. For `CCN(CC)C(=O)c1cccc(NC(=O)c2cc(-c3ccccn3)nc3ccccc23)c1`, the “hERG current change (%, negative = inhibition) at 1uM” value was 7.39%. In the case of `CC(=O)c1cccc(NC(=O)COc2cc3oc(=O)c(CC(C)O)c(C)c3cc2Cl)c1` (stereo not drawn), the “hERG current change (%, negative = inhibition) at 1uM” value is reported as -14.4%. `OCCC1CN(Cc2nc(-c3ccc(F)cc3)cs2)CCN1CCc1ccccc1` (stereo not drawn) was tested, and the “hERG current change (%, negative = inhibition) at 1uM” value was -69.3%. With `COc1cc(/C=C/C(=O)N2CCN(C)CC2)cc(S(=O)(=O)N2CCc3ccccc32)c1OC.Cl` the “hERG current change (%, negative = inhibition) at 1uM” value was 0.264%. With `Cc1ccc(NC(=O)C2CC(=O)n3ncnc3N2)cc1` (stereo not drawn) the “hERG current change (%, negative = inhibition) at 1uM” value was -7.32%. With `COc1cccc(-c2c(NC(C)=O)n(C)c3ccccc3c2=O)c1` the “hERG current change (%, negative = inhibition) at 1uM” value was 11.4%. With `COC(=O)C1=C(C)Nc2ncnn2C1c1ccc(C)o1` (stereo not drawn) the “hERG current change (%, negative = inhibition) at 1uM” value was 4.93%. With `CC(=O)c1ccc(NC(=O)CC(C)S(=O)(=O)c2ccc3c(c2)CCN3C(C)=O)cc1` (stereo not drawn) the “hERG current change (%, negative = inhibition) at 1uM” value was 9.09%. For `C=CCN1CCN(C(=O)CCCc2ccccc2)CC1`, the “hERG current change (%, negative = inhibition) at 1uM” value was 15.5%. In the case of `Cc1oc2ccc(NS(=O)(=O)c3ccc(F)cc3)cc2c1C(=O)O`, the “hERG current change (%, negative = inhibition) at 1uM” value is reported as 13.1%. In the case of `Cc1ccccc1OCC(O)Cn1c(N2CCCCC2)nc2c1c(=O)[nH]c(=O)n2C` (stereo not drawn), the “hERG current change (%, negative = inhibition) at 1uM” value is reported as 8.88%. In the case of `O/N=C(\CN1CCCCC1)c1ccccc1`, the “hERG current change (%, negative = inhibition) at 1uM” value is reported as 10.5%. For `CN1CCN(C(=O)/C(=C/c2cn(C)c3ccccc23)NC(=O)c2ccccc2)CC1`, the “hERG current change (%, negative = inhibition) at 1uM” value was 23.6%. With `COc1ccc(C2CC(c3ccccc3O)=NN2C(=O)c2ccccc2)cc1OC` (stereo not drawn) the “hERG current change (%, negative = inhibition) at 1uM” value was 10.3%. `O=C(CCCN1C(=O)/C(=C/c2ccccc2)SC1=S)Nc1cccc(O)c1` was tested, and the “hERG current change (%, negative = inhibition) at 1uM” value was 12.3%.
